Assay results: the supplement of paper PMC4466236
Over roughly 33,000 sequences, “E-score (dimensionless, -0.5 to 0.5)” has its median near -0.058; the highest 2% begin near 0.35. The list shows a part of the results.

Test system: MvaT
Experiment: PBM 8-mer E-score (mean of HK and ME arrays) (E-score (dimensionless, -0.5 to 0.5)); higher = stronger relative binding preference; most listed sequences are background and not binding sites
Description: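 Protein binding microarray: GST-tagged full-length MvaT (P. aeruginosa PAO1) bound to two universal double-stranded 60-mer arrays (ME and HK), each with a constant 25-mer primer and a variable 35-mer region covering all 8-mers. The 8-mer E-score (rank-based, range -0.5 to 0.5, >0.45 = specific binding) is the mean of the two arrays.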

Point of comparison: AGCATCCA, “PBM 8-mer E-score” value -0.137. Against it:
- GTAGCCCA — higher, -0.0865
- AGCCTGGC — lower, -0.222
- CGGAACGC — higher, -0.135
- GCAGGGGA — lower, -0.33
- AGTTTAAC — higher, 0.244
- GATGCGGC — lower, -0.23
- CGAGACTA — higher, 0.0742
- CGCTTGGC — lower, -0.193
- CGGACCTC — lower, -0.258
- GCTATAGA — higher, -0.132
- CCGGAGTC — lower, -0.19
- CACCCCTA — lower, -0.204
- CTGCCTGC — lower, -0.219
- AGTAGACC — higher, -0.0279
- GGATACCA — higher, -0.0481
- GATACCGA — higher, 0.0372
- GAGAGTAC — higher, -0.0129
- AAAGCCTC — higher, -0.0957
- AGGGAGTC — lower, -0.241
- AAGGTCGT — higher, -0.0288
- TATGCCAA — higher, -0.03
- CCGGTGAA — higher, -0.0479
- CGGAGCTA — lower, -0.286
- AGGTGGCA — lower, -0.248
- AGTGGAGC — lower, -0.186
- ATAAATCA — higher, 0.295
- CCCTGCAC — lower, -0.275
- GCATTAGA — higher, -0.0404
- GCGCCGAC — lower, -0.227
- CTACGGAA — higher, -0.0295
- AACTTGAC — higher, 0.245
- AGGTGCTC — lower, -0.273
- CCACTTAA — higher, 0.0414
- ACAGTTGC — higher, -0.0905
- ATTTACCA — higher, 0.289
- CCGCTTCC — lower, -0.31
- AGCCCCAC — lower, -0.236
- AAACTCGC — higher, 0.0798
- AAGAGATC — higher, 0.0177
- CATCTACG — higher, 0.015
- GCAGAGGA — lower, -0.233
- GGGCTGGA — lower, -0.198
- CGTTCAAG — higher, -0.0745
- ACAGTGGC — higher, -0.0224
- TACCTCGA — higher, -0.0927
- CAGTAACG — higher, 0.0226
- TCCCATAA — higher, 0.0366
- AACACAGT — higher, 0.00605
- CCAGTTAG — higher, 0.177
- CTGCCCAG — lower, -0.317
- CTGCTTAA — higher, 0.142
- GGCTAGAC — lower, -0.23
- CGGCAACG — higher, -0.104
- CAGCTAAG — higher, -0.132
- CTGAAGTA — higher, 0.15
- ACAACGTG — lower, -0.242
- ATGGTTAG — higher, 0.000154
- CTCCACAC — higher, -0.0248
- GCAAATCC — higher, -0.0337
- CGGTAATC — higher, 0.00707
- CTATCCTA — higher, 0.0416
- GCCGCCAC — lower, -0.209
- CTGCAAAG — higher, -0.035
- GGGGAGCA — lower, -0.201
- AACCGGAG — lower, -0.187
- GCCTGTTA — higher, -0.0185
- AGATGAAG — higher, -0.0948
- GGCAACCA — higher, -0.0483
- AGGGGCTG — lower, -0.257
- ATTTCTTC — higher, 0.122
- ACTCATGG — higher, -0.0547
- CCGTAGCC — lower, -0.276
- ACTTACTG — higher, 0.154
- CAATTGAC — higher, 0.147
- CTCGAACA — higher, 0.00851
- ACCGACCG — higher, -0.125
- AGTTCTAC — higher, 0.16
- CCATTGCA — higher, -0.0586
- ATTTGGCA — higher, 0.0336
- GAGACTCA — lower, -0.143
- CCACCGCC — higher, -0.0437
- CTATCGAC — higher, -0.0412
- ACAGTACT — higher, 0.143
- CTCCCGTC — lower, -0.313
- AGGGCTCA — lower, -0.281
- AATCGGGA — higher, -0.0897
- GCTCGGCC — lower, -0.174
- GCAAAGCA — higher, 0.0492
- AGTCAACT — higher, 0.00552
- CTAGTGCA — higher, 0.0373
- CTGTACGC — lower, -0.155
- GCCGAAAA — higher, 0.0286
- CCAAGCTC — lower, -0.211
- CACAATAA — higher, 0.351
- CAGTATTC — higher, 0.0796
- TGTGCCAA — higher, -0.0753
- GCCAAACA — higher, 0.0218
- CCTGACAG — lower, -0.214
- GCCGCACC — lower, -0.263
- ACAAATTC — higher, 0.114
- CAATCGGC — lower, -0.255
- ATGGAGGC — lower, -0.227
- CATACAGA — higher, 0.026
- ATGCCTGC — higher, -0.114
- CTACGTAA — higher, -0.1
- AAGTTCGA — higher, 0.254
- AGCGACAA — lower, -0.154
- AAGGTTTG — higher, -0.00622
- CTTCTGCC — lower, -0.259
- GTTTGGCA — higher, -0.0591
- AAGCTTGT — higher, -0.0683
- GCCGTCAA — higher, -0.128
- CGAGCTTA — higher, -0.096
- CCTGATCC — lower, -0.242
- AAATACCC — higher, 0.223
- TATGGCAA — higher, -0.0129
- CCTATCTC — higher, 0.0122
- CTGGAGCA — lower, -0.143
- GACGGCTC — lower, -0.143
- CAGCTCAG — lower, -0.149
- TGATCGAA — higher, -0.069
- GTCGGCGA — lower, -0.171
- TATGCCGA — higher, -0.0202
- AATGGTGT — higher, 0.113
- ATATTTCC — higher, 0.34
- CCTGTCCC — lower, -0.213
- TAACGATA — higher, 0.222
- CGTGTCCA — higher, -0.105
- AGAACCTG — lower, -0.183
- ATGTCGTA — higher, 0.105
- GATTAAAC — higher, 0.191
- AGGGCGGA — lower, -0.174
- ACCAAGTG — higher, 0.0528
- AGGGACTC — lower, -0.203
- GGTACTCA — higher, -0.0459
- ATAGCGAT — higher, 0.103
- GGTCGAAA — higher, -0.088
- GACCCTAC — lower, -0.272
- AGGGCCTC — lower, -0.159
- CGCGGTAA — higher, 0.00285
- AAGGCTGT — lower, -0.205
- CCCTTCAC — lower, -0.357
- GGTTCGTA — lower, -0.165
- CTGCCGTA — higher, -0.119
- GCACCATA — higher, 0.0674
- TATCACAA — higher, 0.264
- CTTTTGTC — higher, 0.0941
- TCTTTACA — higher, 0.157
- CATTTTAG — higher, 0.112
- CGCTCCAC — lower, -0.171
- ACAGCCTC — lower, -0.211
- TAGAGCAA — higher, -0.0916
- ATTCGAAG — higher, 0.164
- AGCTAAAA — higher, -0.0483
- ATGGCATG — higher, -0.0842
- GTCGTATA — higher, 0.129
- AAGGAGCT — lower, -0.22
- CTACATGC — higher, -0.081
- AATGCCAC — higher, 0.0378
- ACTTGGAA — higher, 0.12
- ATCTGGCA — higher, -0.0575
- CCAGACGA — higher, -0.0247
- ACGGCAAG — higher, -0.124
- AACAGACG — higher, 0.0208
- AAACTTCG — higher, 0.236
- GCAAAGAC — lower, -0.202
- ACAATAGT — higher, 0.294
- AAGAATAA — higher, 0.368
- ACATCGGC — lower, -0.173
- GCATTCAC — higher, 0.00456
- CCTTGTCG — lower, -0.167
